From PubChem BioAssay AID445 (National Center for Advancing Translational Sciences (NCATS), 2006)
The campaign covered roughly 110,000 compounds. About 40 (0.04%) were called active. The inconclusive results got no clear call from the source; some entries with a clear call stand among them for comparison. The call rests on the fitted dose curve; in most records, active means well fitted curve in the direction sought with a large enough effect in the signal ratio (not every such curve was filed as active); inconclusive means small, poorly fitted or top-dose-only effect, or a change in a side signal; inactive means flat fitted curve, though single readings scatter; the % refers to the signal ratio. Potencies beside an inconclusive call are fits to weak or partial responses and may not hold up.

Test: IkB Signaling;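 on IkBa stabilization activation: 0% = basal untreated cells and 100% = reference inhibitor full response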
Settings: ABC-DLBCL IkBa-CBG/CBR dual luciferase ratio (green luciferase fused to IkBa over red control in OCI-Ly3 lymphoma cells), 4 h; IkBa stabilization activation: at 57.1 µM (top of the series), scaled: untreated 0%, proteasome inhibitor 100% unless noted
Outline: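 Luminescence ratio of IκBα-fused green versus native red beetle luciferase in OCI-Ly3 cells, 4 h post-doxycycline with compound; red signal alone, scaled from basal (0%) to zero light (-100%), flagged nonspecific or cytotoxic effects.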
Potency means the concentration at half of the fitted maximal effect.

Compound	IkBa stabilization activation	Potency
CCOC(=O)c1ccccc1NC(=O)c1sc2nc3n(c(=O)c2c1C)CCCC3	inconclusive: 2.01% [signal inhibitor]	
CC(C)CNC(=O)c1cc(-c2ccco2)on1		inconclusive: 31.6 µM [signal inhibitor, partial curve]
CCCc1cc(C(=O)Nc2sc(C)c(C)c2C(=O)OCC)no1	inactive	
Cc1noc(/C=C/N(C)C)c1S(=O)(=O)N1CCCC(C(=O)Nc2ccc3c(c2)OCO3)C1 (stereo unspecified)	inconclusive: 8.78% [signal inhibitor]	
Cc1cccc(C2CC(=O)Oc3c2c(=O)n(C)c2ccccc32)c1 (stereo unspecified)	inconclusive: 13% [signal inhibitor]	
O=C(Cn1c(=O)nc(-c2ccccc2)c2ccccc21)NCc1ccc(F)cc1	inconclusive: 0.131% [signal inhibitor]	
Cc1cc(O)c(C(c2ccccc2)N2CCN(C)CC2)c(=O)n1Cc1ccco1 (stereo unspecified)	inconclusive: 3.33% [signal inhibitor]	
CC1=C(C(=O)N2CCN(c3cccc(C)c3C)CC2)C2(CCCCC2)OC1=O	inconclusive: 2.54% [signal inhibitor]	
COc1ccc(-c2noc(CN(C(C)C)S(=O)(=O)c3ccc(Br)cc3)n2)cc1	inconclusive: 0.377% [signal inhibitor]	
Cc1cccc(NC2=CC(c3cccc(Br)c3)N(c3cccc(C)c3)C2=O)c1 (stereo unspecified)	inconclusive: 13.8% [signal inhibitor]	
O=S(=O)(c1ccc2c(c1)CCN2)N1CCCCCC1	inactive	
CCOc1ccc2[nH]c(C)c(CN3CCOCC3)c(=O)c2c1	inactive	
Cc1cc(NC(=O)c2ccccc2F)n(-c2nc3ccccc3[nH]2)n1	inconclusive: 3.31% [signal inhibitor]	
O=C(CCN1CCc2ccccc2C1)Nc1ccccc1	inconclusive: 4.92% [signal inhibitor]	
CCSc1nc2c([nH]c3ccccc32)c(=O)n1C	inactive	
Cc1ccc2c(c1)c1c(c(=O)n(Cc3ccccc3)c(=O)n1CC(=O)NCc1ccccc1Cl)n2C	inactive	
CCc1ccc(NCc2cc3cc(OC)c(OC)cc3n(CC(=O)Nc3cc(C)ccc3C)c2=O)cc1	inconclusive: 1.33% [signal inhibitor]	
Cc1nn(-c2ccccc2)c2sc(C(=O)n3cccn3)cc12	inactive	
CCC(C)OC(=O)/C(C#N)=C\c1ccc(-c2cccc(C(F)(F)F)c2)o1 (stereo unspecified)	inactive	
COc1ccc(C(C)n2c(C)c3c(C)nnc(C)c3c2C)cc1 (stereo unspecified)	inconclusive: -0.771% [signal inhibitor]	
Cc1cccc(C)c1Nc1nc2ccccc2nc1NS(=O)(=O)c1ccccc1		inconclusive: 5.01 µM [signal inhibitor, full curve, poor fit]
COc1ccc(S(=O)(=O)N(CC(=O)NCc2ccccc2)c2ccc(C)cc2)cc1OC	inconclusive: 0.29% [signal inhibitor]	
Cn1c(=N)c(S(=O)(=O)c2ccc(F)cc2)cc2c(=O)n3ccccc3nc21	inactive	

Compound	IkBa stabilization activation	Potency
O=C(Nc1ccc(-c2cn3ccsc3n2)cc1)C1CCCC1	inactive	
CC1CCN(S(=O)(=O)c2ccc3c(c2)N(CC(=O)NC(C)C)C(=O)CO3)CC1	inactive	
Cc1cc(C2(c3cc(C)c(O)cc3C)OS(=O)(=O)c3ccccc32)c(C)cc1O	inactive	
O=C(Nc1cccc2cccnc12)c1ccc(Br)o1	inactive	
COc1cccc(CNC(=O)CSc2ncc(S(=O)(=O)c3ccc(Br)cc3)c(=O)[nH]2)c1	inconclusive: 9.27% [signal inhibitor]	
Cc1ccc(-c2nnc(Nc3ccc(Cl)c(Cl)c3)c3ccccc23)cc1S(=O)(=O)NCCO		inconclusive: 12.6 µM [signal inhibitor, partial curve]
Cc1ccc(NC(=O)C2CCCN2S(=O)(=O)c2cccc3nsnc23)cc1Cl (stereo unspecified)	inconclusive: 1.33% [signal inhibitor]	
CC1CCN(S(=O)(=O)c2ccc3c(c2)CCN3C(=O)Nc2ccc(Br)cc2)CC1	inactive	
Cc1ccccc1C(=O)N1CCN(CCc2ccccn2)CC1	inconclusive: 0.742% [signal inhibitor]	
c1ccc2[nH]c(NC3=NCCC3)nc2c1		inconclusive: 39.8 µM [rising, single point]
Cc1c(C(=O)Nc2ccc(C(C)C)cc2)sc2nc[nH]c(=O)c12	inactive	
N#Cc1cccc(NC(=O)N2CC3(CCN(C(=O)c4cc(C(F)(F)F)cc(C(F)(F)F)c4)CC3)C2)c1	inactive: 1.57% [at 11.4 µM, scaled: untreated 0%, proteasome inhibitor 100%]	
Cc1ccc(CNC(=O)c2c(O)nc3c(C)cccn3c2=O)cc1	inconclusive: -0.974% [signal inhibitor]	
Cc1nc2ccc(S(=O)(=O)NC(CC(C)C)C(=O)N3CCN(c4ccc(F)cc4)CC3)cc2s1 (stereo unspecified)	inconclusive: -0.043% [signal inhibitor]	
O=S(=O)(c1ccccc1)N1CCC2(CC1)CN(C(c1ccccc1)c1ccccc1)C2	inactive: 7.1% [at 11.4 µM, scaled: untreated 0%, proteasome inhibitor 100%]	
COc1ccc(Br)cc1CNC(=O)c1nn(-c2ccc(C)cc2)c(=O)c2c1c1ccccc1n2C	inactive	
Clc1ccccc1C(c1ccccc1)(c1ccccc1)n1ccnc1	inactive	
Fc1ccc(Cc2cn3cc(-c4ccccc4)nc3s2)cc1		inconclusive: 12.6 µM [signal inhibitor]
CCOC(=O)c1ccc(NC(=O)c2csnn2)cc1	inconclusive: 3.94% [signal inhibitor]	
CCOC(=O)c1cccc(NC(=O)CCC(=O)N2CC(C)Oc3ccc(C)cc32)c1 (stereo unspecified)	inconclusive: 0.473% [signal inhibitor]	
COc1ccc(-c2n[nH]c3c2C(c2ccc(O)cc2)N(c2ccc(Br)cc2)C3=O)cc1 (stereo unspecified)	inconclusive: -4.03% [signal inhibitor]	
c1ccc(OCCCc2nc(-c3ccncc3)no2)cc1	inconclusive: 1.65% [signal inhibitor]	
CCOC(=O)c1c(C)[nH]c(C)c1S(=O)(=O)N1CCCC(C(=O)Nc2ccc(F)cc2F)C1 (stereo unspecified)	inactive	
